Measured values from publication PMC9177701, “Taf2 mediates DNA binding of Taf14” (Nature Communications, 2022).
These are yes or no findings as the source states them, for the method shown. For some of these results: In cells and extracts the contact can be indirect. Some results given as binding are weak or reduced against the parent protein; the word gives no strength. For some of these results: Sequences can lack the tags named with a protein.

B1: Taf3 (protein, UniProt Q12297 1-353)
chain: MTTNNDFYFALLRISILQLLKAQGFDRARPSLVDVMTDLYAKFLSLLASEVSSIAQARCDQDDTIALQDITLALENLGIVKPTNVLDVYDENSELSSSRGMEKFKDWCIYSTQLTDARITALPTVELLQSEEKESDPLSAIPDYLNQLLQNKGAKQKLETKNRKTELIEDLINNNGLDDWIKLVIARQRINMIERASKKESQNVPALPHIAGYKSSILSRHHHTTITNEDRMPSAMTPRDEDALTEIQENPFVTSKLPIMRKENRLENITLSFEDEELESLGEVEGPNQKSQENNNEESFKENNKSLTESPHGDDRDISMFQFDSNVDTKWAEQEDMDSTFQRRTSLDYGGYF
B2: Taf7 (protein, UniProt Q05021 1-590)
chain: MAVIRIKKPRGPGEKDQPLEGEPKLKRIRIKTKVTDEDIKPKPKLKINLKKKKESADGKEKKNSLKLKLNLKKNEEPVKKIHKAPKLRLKPIRIPGEAYDSEASDIEDDPLIESGVILRILPDIQLEFVKNSLESGDYSGISIKWKNERHAVVTINDVMYGAILVDLPTVIEVNKSVDRKNLLKTFDVSQMLLCIRPIQEEEEVYALEAPDTEDLVVKHFEGIEDEIWENKETFLKGYNGAPLSDMEAKHLKEIALKGYDYKHGISPPLYNVRNRRFRRKMDPNEIDYVEKVVDMLLKQDKQAEEVSYDLVDKSELQARQERVSSWENFKEEPGEPLSRPALKKEEIHTIASAVGKQGAEEEGEEGMEEEEEEDLDLGAAFESEEEGSGAEGDKEQQQEEVGDEVDQDTGGEDDDDDDDGDIEAAGGESESDDEKDENRQHTELLADELNELETTLAHTKHKLSKATNPLLKSRFIDSIKKLEKEAELKRKQLQQTEDSVQKQHQHRSDAETANNVEEEEEEEEEEEEEDEVDEDEEDDEENDEDEDNVHEREHIQENKVVRELDEAPAEETLDQNDLDMMMLFGAEGDE
B3: Taf8 (protein, UniProt Q03750 1-510)
chain: MTSKTSESGTGTQSTIVQLRNLPDLTEISHLEIDAPVVEILKKTVLFQLNSLNICISNFALDELVNLVTVQMDGMFRNLHNLTLLQRRSQASQADLKLLLREFNLDAPSLYQQFQASEFIKSKHSTEYEKLMSWSSLAALPHNEEDEEDELNNIEEQQNEINVLLPPSNPLEKQIPSWLPNFPPDHTYKFTPEFNHPITDLKTIKKEIVKESQESEKALLNLNKSLSHISSASNTPQPPGLDDEDAIEQQLEIWGNALEERKPTITEKSFNENNIEQYAKYRVELARERVTKFEVNQLKRTKNPFLKISETLYLPESPHQSHKTIQKTIELQFRKSMTLFMHNLPKVQKLKKEKIRMAKEERAKSLKRRQEELISQRTKREQDEGHDLELLLNNEHARDAADDTTTPNALNNSTIVINTNAEDEDDDINLFGILGSSEDENEMSSMPAENLVAESEPPTMTAQDTTNTTPVAHNTTNIDATTSHSPHSTPNENAPTSPPADIATDHDITM

Tests used:
[1] = molecular target: T1, HA-Taf2_(mut_ΔC) (S. cerevisiae) (UniProt P23255); assay: co-IP; 2 mg soluble protein extract of pseudodiploid yeast, anti-HA 12CA5 mAb with 50 ng/μl ethidium bromide, 4 °C 2 h, protein A-Sepharose; blots with anti-HA and anti-Taf polyclonal antibodies
T1 sequence: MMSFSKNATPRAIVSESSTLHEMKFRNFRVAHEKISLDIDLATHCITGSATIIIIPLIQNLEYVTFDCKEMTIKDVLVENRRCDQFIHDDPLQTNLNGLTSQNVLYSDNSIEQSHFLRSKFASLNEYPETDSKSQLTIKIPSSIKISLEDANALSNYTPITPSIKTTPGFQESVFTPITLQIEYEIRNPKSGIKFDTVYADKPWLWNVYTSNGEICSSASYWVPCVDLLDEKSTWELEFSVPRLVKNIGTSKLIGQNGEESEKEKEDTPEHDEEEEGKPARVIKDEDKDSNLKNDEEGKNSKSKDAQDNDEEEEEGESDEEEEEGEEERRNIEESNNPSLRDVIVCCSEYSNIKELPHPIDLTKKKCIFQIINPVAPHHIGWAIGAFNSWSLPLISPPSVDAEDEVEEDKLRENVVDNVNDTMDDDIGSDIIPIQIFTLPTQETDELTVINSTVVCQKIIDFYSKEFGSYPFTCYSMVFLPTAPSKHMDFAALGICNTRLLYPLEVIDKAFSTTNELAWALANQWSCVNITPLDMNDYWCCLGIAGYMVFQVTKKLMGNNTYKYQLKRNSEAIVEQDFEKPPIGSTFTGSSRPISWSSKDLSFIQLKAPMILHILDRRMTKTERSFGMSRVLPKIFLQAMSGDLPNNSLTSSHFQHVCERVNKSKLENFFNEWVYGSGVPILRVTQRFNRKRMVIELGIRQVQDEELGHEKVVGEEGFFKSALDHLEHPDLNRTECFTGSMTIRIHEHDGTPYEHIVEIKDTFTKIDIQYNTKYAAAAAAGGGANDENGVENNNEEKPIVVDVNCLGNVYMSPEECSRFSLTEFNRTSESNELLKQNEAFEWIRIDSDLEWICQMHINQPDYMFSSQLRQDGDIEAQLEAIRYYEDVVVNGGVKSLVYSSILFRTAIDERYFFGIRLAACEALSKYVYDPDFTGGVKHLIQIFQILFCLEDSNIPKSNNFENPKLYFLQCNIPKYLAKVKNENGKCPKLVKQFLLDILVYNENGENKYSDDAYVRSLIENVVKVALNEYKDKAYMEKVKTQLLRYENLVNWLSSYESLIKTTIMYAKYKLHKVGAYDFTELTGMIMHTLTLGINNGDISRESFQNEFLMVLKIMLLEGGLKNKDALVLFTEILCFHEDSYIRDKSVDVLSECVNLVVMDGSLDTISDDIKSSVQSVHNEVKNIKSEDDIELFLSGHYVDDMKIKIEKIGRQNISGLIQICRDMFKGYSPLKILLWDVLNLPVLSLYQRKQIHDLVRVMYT

[2] = molecular target: T2, Taf14FL (full-length Taf14, aa 1–244) (S. cerevisiae, UniProt P35189 1-244); assay: cross-linking; DSSO cross-linking with mass spectrometry; 1 mM SEC purified Taf14FL with 10.8 mM Taf2CT peptide, 2.5 mM DSSO, 25 mM Hepes pH 7.5, 150 mM NaCl, 1 h at 23 °C; both purified
T2 construct: Taf14 (transcription initiation factor subunit 14), S. cerevisiae, aa 1–244, a 244-residue protein; In the EMSAs (functional rows) GST-Taf14 or Taf14 proteins were used; source: E. coli Rosetta-2 (DE3) pLysS, purified (SEC for cross-linking; 15N-labeled for NMR)
T2 sequence (looked up): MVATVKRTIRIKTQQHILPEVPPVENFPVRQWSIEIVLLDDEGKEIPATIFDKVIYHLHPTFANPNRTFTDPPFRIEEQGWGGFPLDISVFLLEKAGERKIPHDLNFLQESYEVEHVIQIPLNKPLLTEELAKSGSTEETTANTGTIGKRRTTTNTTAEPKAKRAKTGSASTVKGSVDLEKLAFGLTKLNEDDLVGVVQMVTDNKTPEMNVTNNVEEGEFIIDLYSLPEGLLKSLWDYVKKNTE

[3] = molecular target: Taf14_(YEATS) (YEATS domain of Taf14, aa 1–137) (S. cerevisiae) (UniProt P35189); assay: NMR titration; 1H,15N HSQC of 0.1–0.3 mM uniformly 15N-labeled Taf14 protein, unlabeled peptide added; 298 K; 50 mM Tris-HCl pH 6.6–7.5, 150 mM NaCl, 0–5 mM DTT or 0.2 mM TCEP, or 1x PBS pH 6.6–7.5; both purified

| binding [1] | also measured | Molecule |
| --- | --- | --- |
| no binding |  | Taf14 (endogenous, yeast extract) (from UniProt P35189 1-244) |
| binds |  | B1 |
| binds |  | B2 |
| binds |  | B3 |
|  | binding [2]: binds | SRSFMVKIRTKN (peptide, UniProt P23255 1392-1403) [Taf2CT peptide (aa 1392–1403)] |
|  | binding [3]: no binding | SRSFMDKIRTK (peptide, UniProt P23255 1392-1402) [Taf2_(CT(V1397D)) peptide (aa 1392–1402)] |
|  | binding [3]: no binding | SRSFMVKDRTK (peptide, UniProt P23255 1392-1402) [Taf2_(CT(I1399D)) peptide (aa 1392–1402)] |
